In the data set the test system is ATP. Nature of the data set: switch fluorescence ratio, 500 uM ATP over buffer (Cy3 cluster intensity, sum of 5 cycles each) (fold (ratio)); higher = stronger signal-on switching upon ATP binding; sequences stand for … in TCGTCGGCAGCGTCAGATGTGTATAAGAGACAGTTTTTTTTTTTTTTTTTTTTTTTTT…TC. As to conditions: aptamer strand: ATP DNA aptamer (quencher-CACCTGGGGGAGTATTGCGGAGGAAGG + anchor), 100 nM annealed; ATP concentration: 500 uM; one replicate. In short, it runs like this:
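Cy3-labelled switching-strand clusters on a modified Illumina MiSeq flow-cell were annealed to 100 nM quencher-labelled ATP aptamer and imaged first in selection buffer, then after 15 min with 500 uM ATP at 22 °C. NaOH stripping and re-annealing separated each of five buffer/ATP cycles, and clusters outside 100-1000 RFU were excluded. The fluorescence ratio sums target-cycle Cy3 intensity over buffer-cycle Cy3 intensity per cluster and averages it per switch-domain sequence.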

Values marked as one replicate rest on one cluster of the flow cell; about a third of the high ones do not repeat.
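Note: ATP exposure 15 min at 22 °C before imaging.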

Take AGTTGGAATC: the switch fluorescence ratio was 1.

Consider TCTCCCATTG, for which the switch fluorescence ratio was 1.3.

On to GCCTAAAAGT, for which the switch fluorescence ratio is 0.979.

Turning to AATTGTCCTC, the switch fluorescence ratio was found to be 0.936.

Take TAAACTTACG: the switch fluorescence ratio was found to be 1.46.

As for CAGGGGTCCC, the switch fluorescence ratio was 1.

Consider CAGCTACGGG, for which the switch fluorescence ratio was determined as 1.07.

As to CAGGTATTCG, the switch fluorescence ratio came to 1.05.

For the sequence ATTATGCGTG, the switch fluorescence ratio was 0.995.

As for CGTAGCGTT, the switch fluorescence ratio came out at 1.21.

Consider GCCCACCTAT, for which the switch fluorescence ratio came to 1.05.

On to GGGCTAGAAA, for which the switch fluorescence ratio worked out at 1.01.

For the sequence AAATCTTGGA, the switch fluorescence ratio came out at 0.974.

On to TCGAGCTATG, for which the switch fluorescence ratio is 1.03.

As for TTGGGCTCCG, the switch fluorescence ratio was determined as 1.22.

In the case of CATCGGGGAG, the switch fluorescence ratio stood at 1.07.

Regarding AAGAACGCTC, the switch fluorescence ratio worked out at 1.02.

For TTCCGTACGA, the switch fluorescence ratio came to 1.82.

For AGCGGACATT, the switch fluorescence ratio was determined as 0.993.

ATTTCTAAAC: the switch fluorescence ratio was 0.985.

As for TGAAGTGGA, the switch fluorescence ratio turned out to be 1.01.

With CTTTCGTCGC, the switch fluorescence ratio came out at 1.42.

Consider GATTGAAATG, for which the switch fluorescence ratio was found to be 0.972.

AGGTAGTTCA: the switch fluorescence ratio came to 1.03.

In the case of AGCATTATCC, the switch fluorescence ratio turned out to be 1.3.

For the sequence CGGACGTTAG, the switch fluorescence ratio amounted to 1.14.

For the sequence ATGGCTGT, the switch fluorescence ratio stood at 1.03.

Regarding TACATGATGA, the switch fluorescence ratio came out at 1.05.

GTACCAGGAA: the switch fluorescence ratio was determined as 1.05.

With GTGTCGTCTA, the switch fluorescence ratio turned out to be 1.03.

For the sequence ATACAAATGT, the switch fluorescence ratio was 1.

Turning to TGAGTTTGTC, the switch fluorescence ratio is 0.933.

Take TTTAGATGAA: the switch fluorescence ratio worked out at 0.97.

Consider CTTTGGGTAA, for which the switch fluorescence ratio came out at 1.02.

As for GGGCTGTCGG, the switch fluorescence ratio was found to be 0.988.

With AATATGAAGA, the switch fluorescence ratio came out at 1.03.

Regarding TAGCTCGATC, the switch fluorescence ratio came to 1.02.

Regarding GGCCTGCAAC, the switch fluorescence ratio turned out to be 1.1.

Consider AGGAAAGACG, for which the switch fluorescence ratio was found to be 1.07.

GATTGGATCA: the switch fluorescence ratio was 0.991.

For the sequence CATGAGATGA, the switch fluorescence ratio came out at 0.971.

Consider GGGATGGGT, for which the switch fluorescence ratio was determined as 1.01.

As to AACCTCTGTT, the switch fluorescence ratio came to 1.04.

As for TTGCGAAGCA, the switch fluorescence ratio is 0.96.

On to CCATGGGTCG, for which the switch fluorescence ratio worked out at 0.976.

GAGTCAAAGG: the switch fluorescence ratio is 1.

Turning to GTCTAACCTG, the switch fluorescence ratio came to 1.02.

With AAAACTCAAG, the switch fluorescence ratio was determined as 1.05.

As to GGCCGCCATG, the switch fluorescence ratio came out at 1.02.

Consider CTAGTCAAGC, for which the switch fluorescence ratio was 1.05.

As for ATTCCGAATT, the switch fluorescence ratio stood at 1.1.

On to TATATACTTG, for which the switch fluorescence ratio worked out at 1.06.

Regarding CCCTGGGGCG, the switch fluorescence ratio turned out to be 1.03.

For the sequence TGTGTGTGG, the switch fluorescence ratio was determined as 1.06.

AGTGGGGAA: the switch fluorescence ratio came to 1.

As to TAGAAGCACT, the switch fluorescence ratio worked out at 1.05.

On to AGCATTGGGA, for which the switch fluorescence ratio was 0.978.

Regarding CGGCCATCAG, the switch fluorescence ratio was found to be 0.96.

Take CCGCGGTTTG: the switch fluorescence ratio was determined as 1.13.

Take AAGTCGCAGC: the switch fluorescence ratio stood at 1.03.

As to GGATCCGTCG, the switch fluorescence ratio was 0.992.

Regarding ATTTATTTAC, the switch fluorescence ratio was determined as 1.1.

CCACGAGAGC: the switch fluorescence ratio is 1.07.

Regarding GGAAGTATGA, the switch fluorescence ratio was 0.972.

Regarding GACGTCGTGT, the switch fluorescence ratio stood at 0.994.

As to CGGAGGGTTA, the switch fluorescence ratio came to 1.

On to GCGCAAATTC, for which the switch fluorescence ratio was 1.09.

As for CGCGCCCCGG, the switch fluorescence ratio was found to be 1.75.

Regarding CTGATTAATT, the switch fluorescence ratio is 1.02.

Take TTGGAATCAG: the switch fluorescence ratio amounted to 1.

For CCAGGCGGTC, the switch fluorescence ratio was 1.08.

On to CTAACTGACC, for which the switch fluorescence ratio is 1.12.

For GATCTGTTT, the switch fluorescence ratio worked out at 0.962.

TGTCCTCGGC: the switch fluorescence ratio worked out at 1.18.

Take GAGTAGTGTG: the switch fluorescence ratio came to 0.957.

Regarding AGATATGTG, the switch fluorescence ratio is 1.

Consider TTGCGGATTA, for which the switch fluorescence ratio came out at 1.02.

Regarding GGCCACATTG, the switch fluorescence ratio amounted to 0.964.

In the case of AAGGGTCCA, the switch fluorescence ratio is 0.974.

Regarding ATCCAAAGCT, the switch fluorescence ratio came out at 1.2.

For TCCATTGATT, the switch fluorescence ratio was 1.01.

In the case of TCGCCAGCGG, the switch fluorescence ratio worked out at 1.03.

For the sequence GCGCTACGCC, the switch fluorescence ratio was found to be 1.01.

GGAGGGTGTT: the switch fluorescence ratio amounted to 1.09.

Take CCGGCCTCTA: the switch fluorescence ratio is 1.18.

TGCCAAAAG: the switch fluorescence ratio was 0.976.

With ATGTGTGTAC, the switch fluorescence ratio stood at 0.997.

As for TTTTGACACT, the switch fluorescence ratio turned out to be 1.02.

With TACTCGGAT, the switch fluorescence ratio was determined as 0.989.

As to ACCAGCGCTA, the switch fluorescence ratio came to 1.04.

As to ATACTAAGAG, the switch fluorescence ratio was determined as 1.01.

Consider AGTTCGCTCT, for which the switch fluorescence ratio was 0.968.

For the sequence TTAGTGTGCC, the switch fluorescence ratio is 0.959.

Regarding AGGTCGTTGG, the switch fluorescence ratio came to 0.971.

On to TGACGTGTAG, for which the switch fluorescence ratio is 1.04.

For CTAGTTCGAT, the switch fluorescence ratio was found to be 1.03.

On to TTCTGACTC, for which the switch fluorescence ratio amounted to 1.28.

For the sequence GGCCGAATTT, the switch fluorescence ratio came to 0.985.

Take TGCTCTAGGT: the switch fluorescence ratio is 1.05.

On to TTCATCTTAA, for which the switch fluorescence ratio was determined as 0.962.

Consider TAATAACTCA, for which the switch fluorescence ratio is 1.08.

For CACGCACTGT, the switch fluorescence ratio was determined as 1.64.

Turning to TTGCCAACCG, the switch fluorescence ratio was determined as 1.03.

As to AAAGAGCCGC, the switch fluorescence ratio worked out at 1.05.

With TACACTACTT, the switch fluorescence ratio was 1.24.

As for GTACGAAGGG, the switch fluorescence ratio stood at 1.11.

ACTGAGGCGA: the switch fluorescence ratio stood at 0.883.

On to TGCTTAAGCC, for which the switch fluorescence ratio turned out to be 0.993.

As for ATATATGCAA, the switch fluorescence ratio worked out at 1.02.

Take TATAGGATGT: the switch fluorescence ratio is 0.982.

Consider TTGTGTGAT, for which the switch fluorescence ratio amounted to 1.02.

Consider ACTTGCTTGG, for which the switch fluorescence ratio came to 1.05.

As to GGGGCGCGCT, the switch fluorescence ratio came to 1.01.

As to TACAGGGTTG, the switch fluorescence ratio came to 1.02.

For GAATCATATC, the switch fluorescence ratio is 1.01.

Regarding GTCTCGCATA, the switch fluorescence ratio worked out at 1.26.

With ACGACTAGCT, the switch fluorescence ratio stood at 1.08.

For the sequence TGCGTCGTAG, the switch fluorescence ratio was determined as 1.06.

In the case of TGTCTGCACA, the switch fluorescence ratio was found to be 1.13.

As to CCAAATGCTC, the switch fluorescence ratio was found to be 1.66.

Source of the values: the supplement of paper PMC10126150.
